# These are yes or no findings as the source states them, for the method shown. In cells and extracts the contact can be indirect. Some results given as binding are weak or reduced against the parent protein; the word gives no strength.
# By UniProt entry, the sequences of proteins in these tests, tags left out. Where a name states a change or a piece, a line headed by the entry shows the natural chain unless it says otherwise. Residues count along the entry.
# UniProt Q9ULZ3: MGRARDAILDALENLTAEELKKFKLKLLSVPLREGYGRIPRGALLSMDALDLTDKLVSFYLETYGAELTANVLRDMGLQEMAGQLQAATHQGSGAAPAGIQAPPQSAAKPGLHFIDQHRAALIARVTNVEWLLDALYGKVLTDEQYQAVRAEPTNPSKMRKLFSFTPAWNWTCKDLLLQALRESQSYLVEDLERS
# UniProt Q9Y2G2, residues 446-536: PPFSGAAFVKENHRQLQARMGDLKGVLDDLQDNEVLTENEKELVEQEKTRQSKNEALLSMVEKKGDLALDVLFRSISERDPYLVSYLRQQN
# T1: CARD domain of caspase-1 (human), P29466
# T1 chain: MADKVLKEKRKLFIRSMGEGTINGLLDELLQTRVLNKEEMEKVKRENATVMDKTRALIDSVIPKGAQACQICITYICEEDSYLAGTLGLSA
# Columns and labels:
# Assay in all cases: split reporter; NanoBiT: sonicated, clarified PBS lysates of HEK 293T cells with the SmBiT fusion and with the LgBiT fusion, normalised for expression, mixed in equal volumes in 384-well plates; Nano-Glo Live Cell Reagent; relative luminescence
# [1] = target: CARD domain of caspase-1 (human) (UniProt P29466)
# [2] = target: CARD domain of ASC (apoptosis-associated speck-like protein containing a CARD) (human) (UniProt Q9ULZ3)
# [3] = target: SmBiT-tagged full-length ASC (human) (UniProt Q9ULZ3)
# [4] = target: T1, CARD domain of caspase-1 (human), P29466; details: remark: other sources report otherwise
Molecule,binding [1],binding [2],binding [3],binding [4]
CARD domain of ASC (apoptosis-associated speck-like protein containing a CARD) (from UniProt Q9ULZ3 107-195) (domain or fragment),binds,–,–,–
CARD domain of CARD8 (from UniProt Q9Y2G2 446-536) (domain or fragment),binds,no binding,no binding,–
CARD domain of caspase-1 (from UniProt P29466 1-91) (domain or fragment),–,binds,–,–
"CARD domain of NLRP1 (domain or fragment, UniProt Q9C000 1374-1463) DAPQLLHFVDQYREQLIARVTSVEVVLDKLHGQVLSQEQYERVLAENTRPSQMRKLFSLSQSWDRKCKDGLYQALKETHPHLIMELWEKG",no binding,binds,binds,–
"CARD domain of caspase-1, P29466 1-91 (domain or fragment) MADKVLKEKRKLFIRSMGEGTINGLLDELLQTRVLNKEEMEKVKRENATVMDKTRALIDSVIPKGAQACQICITYICEEDSYLAGTLGLSA",–,–,–,binds

# Source: PMC7025033
